Measurements reported in publication PMC4336329 (PLoS ONE, 2015).
Out of some 310,000 compounds screened, about 2,200 (0.71%) showed an effect of 50% or more. Effects have a minus sign here. The list shows a part of the results.

Biological target: human ether-à-go-go-related gene (hERG) potassium channel (human, UniProt Q12809)
Assay: primary screen, population patch clamp on CHO cells stably expressing hERG

Sequence of human ether-à-go-go-related gene (hERG) potassium channel (Q12809 whole entry, looked up): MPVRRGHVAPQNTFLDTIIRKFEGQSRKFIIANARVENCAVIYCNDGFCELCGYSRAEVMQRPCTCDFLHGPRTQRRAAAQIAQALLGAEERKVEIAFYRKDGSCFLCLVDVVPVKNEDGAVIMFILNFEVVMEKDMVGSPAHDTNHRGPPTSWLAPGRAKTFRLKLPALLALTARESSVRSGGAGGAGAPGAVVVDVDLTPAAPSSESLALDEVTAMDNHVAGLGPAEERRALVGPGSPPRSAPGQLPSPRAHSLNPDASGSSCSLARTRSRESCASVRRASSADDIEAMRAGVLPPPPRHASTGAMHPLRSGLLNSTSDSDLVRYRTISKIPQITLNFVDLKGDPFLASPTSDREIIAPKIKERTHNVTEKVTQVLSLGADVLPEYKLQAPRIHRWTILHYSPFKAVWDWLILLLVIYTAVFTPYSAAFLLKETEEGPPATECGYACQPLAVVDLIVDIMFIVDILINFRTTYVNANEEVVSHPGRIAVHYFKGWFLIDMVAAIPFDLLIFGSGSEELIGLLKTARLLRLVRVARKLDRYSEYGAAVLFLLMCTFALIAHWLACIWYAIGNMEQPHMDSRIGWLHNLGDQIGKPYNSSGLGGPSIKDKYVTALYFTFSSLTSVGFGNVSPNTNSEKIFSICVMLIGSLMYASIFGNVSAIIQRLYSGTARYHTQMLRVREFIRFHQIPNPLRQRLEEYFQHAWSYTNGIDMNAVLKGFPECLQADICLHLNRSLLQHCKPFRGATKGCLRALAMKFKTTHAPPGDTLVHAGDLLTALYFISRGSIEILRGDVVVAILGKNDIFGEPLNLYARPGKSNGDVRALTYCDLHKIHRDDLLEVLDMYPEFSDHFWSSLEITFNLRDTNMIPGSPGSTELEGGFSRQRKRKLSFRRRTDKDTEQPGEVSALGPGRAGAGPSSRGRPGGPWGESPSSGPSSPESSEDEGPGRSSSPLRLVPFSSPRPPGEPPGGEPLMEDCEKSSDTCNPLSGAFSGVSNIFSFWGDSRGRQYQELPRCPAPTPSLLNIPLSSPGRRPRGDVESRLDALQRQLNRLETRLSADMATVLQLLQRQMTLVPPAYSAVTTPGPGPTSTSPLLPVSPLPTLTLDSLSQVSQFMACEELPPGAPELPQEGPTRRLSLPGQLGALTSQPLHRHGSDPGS

SMILES	hERG current change (%, negative = inhibition) at 1uM [%]
CC(NC(=O)c1ccccc1F)C(=O)O (stereo not drawn)	16.8
FC(F)(F)c1cc(CCN2CCNC[C@@H]2Cc2ccccc2)cc(C(F)(F)F)c1	12.7
CCOc1ccc(CCNc2nc3ccc(C)cc3n3cnnc23)cc1OCC	-8.96
CCc1ccc(CN(C)Cc2nc(-c3cccc(Cl)c3)no2)nc1	8.72
Cc1cc(NC(=O)CSc2nncn2N)no1	13.2
Cc1ccc(NC(=O)CN(C)C(=O)Cn2cc(C(F)(F)F)cc(Cl)c2=O)cc1	8.72
NC(=O)c1ccc(C(=O)c2ccc([N+](=O)[O-])cc2)cc1	5.39
CN1CCN(S(=O)(=O)c2ccc(Oc3ccc(Br)cc3F)nc2)CC1	1.32
Cc1c(NC(=O)CSCc2c(F)cccc2Cl)c(=O)n(-c2ccccc2)n1C	5.27
O=P1(Oc2ccccc2)CC=C[C@H](COCc2ccccc2)O1 (stereo partly drawn)	18.4
O=C(c1cccc(S(=O)(=O)N2CCc3ccccc3C2)c1)N1CCN(c2ccccc2)CC1	16
Cc1c(CC(=O)O)c(=O)oc2cc(OCc3ccc(Cl)cc3)ccc12	12.8
CCC(CC)c1ncc[nH]1	16.1
CCOC(=O)c1c(-c2ccc(OC)cc2)csc1NC(=O)COc1ccc2c(C)cc(=O)oc2c1	11.1
Cc1ccc(C(=O)CCC(=O)CCC(=O)O)cc1	7.61
Cc1ccsc1/C=N/NC(=O)Nc1ccccc1	14.1
Cn1cc([N+](=O)[O-])c(C(=O)Nc2ccc(-c3nc4ccccc4o3)cc2)n1	17.1
CN(CC(=O)Nc1ccncc1)S(=O)(=O)c1ccccc1	5.39
N#CC(C#N)=Cc1cc2ccccc2nc1N1CCCCC1	7.85
COc1ccc(-n2nc3c(N4CCC(C(=O)NC5CCCCC5)CC4)nnc(C)c3c2C)cc1	14.6
O=C(NCCN1CCCC1=O)Nc1ccccc1	2.75
COc1ccc2cc3c(N)nn(C(=O)c4cccc(F)c4)c3nc2c1	8.88

SMILES	hERG current change (%, negative = inhibition) at 1uM [%]
COc1ccc(-c2c(-c3cc(OC)cc(OC)c3)n(C)c3ccc(-c4ccc(OC)nc4)cc23)cc1	8.97
O=[N+]([O-])c1cccc(S(=O)(=O)NCc2ccncc2)c1	12.3
Nc1nonc1-n1nnc(C(=O)N/N=C\c2cccc(Cl)c2)c1CN1CCOCC1	-1.03
CC(C)(C)NC(=O)CN(Cc1ccc2c(c1)OCO2)C(=O)CNC(=O)c1cccs1	1.94
CCOc1ccc(C(=O)NCCN2CCCCC2)c(OCC)c1	0.113
COc1ccc(NC2CCCN(C(=O)CSc3ccccc3)C2)cc1OC (stereo not drawn)	4.34
COc1ccc(CN2CCNC(=O)C2CC(=O)N(C)Cc2ccncn2)c(OC)c1 (stereo not drawn)	10.9
COCc1ccc(-c2c(-c3ccsc3)sc3ccccc23)cc1	14.7
CCCn1nnc(NC(=O)C(c2ccccc2)c2ccccc2)n1	10.2
Nc1nc(-c2ccco2)nn1C(=O)CCc1ccccc1	6.41
O=C(CNC(=S)N(Cc1ccccc1)Cc1cccnc1)N1CCOCC1	20.4
CCOc1ccc(NC(=O)Cc2c(C(=O)O)n(C)c3ccccc23)cc1	14.1
COC(=O)c1ccc(Nc2cc(C)nc3ccccc23)cc1.Cl	-8.87
O=C(CN1C(=O)COc2ccc(Cl)cc21)N1CCc2ccccc21	3.63
CCOC(=O)N1CCN(C(=O)c2ccc3c(c2)N(C)C(=O)/C(=C\c2ccc(OCC)c(OC)c2)S3)CC1	4.92
COc1ccc2cc(CN(Cc3ccco3)C(=S)NCC3CCCO3)c(=O)[nH]c2c1 (stereo not drawn)	13.7
N#CCCN(C1CCCCC1)S(=O)(=O)CCOc1ccccc1	13.1
COc1ccc(NC(=O)c2cccc(S(=O)(=O)N3CCOCC3)c2)cc1	-1.57
CCOC(=O)N1CCN(C(=O)C2CCCN(c3ncnc4c3nc3n4CCCCC3)C2)CC1 (stereo not drawn)	-5.14
O=C(NCc1cccs1)c1nc2ncccn2n1	7.67
O=C1CC(C(=O)N2CCN(S(=O)(=O)c3cccc(F)c3)CC2)CN1Cc1ccccc1Cl (stereo not drawn)	0.225
COc1ccc(NC(=O)CC2C(=O)N(C)C(=S)N2Cc2ccc3c(c2)OCO3)cc1 (stereo not drawn)	-4.34

SMILES	hERG current change (%, negative = inhibition) at 1uM [%]
N#CC1CCN(C(=O)c2ccc3c(Cl)c4c(nc3c2)CCCC4)CC1	7.08
COc1ccc(/C(C)=N/N=C2/NC(=O)CC(C(=O)O)S2)cc1 (stereo not drawn)	5.89
CCOC(=O)c1ccc(N2CN(CCc3ccccc3)CNC2=S)cc1	7.78
COc1ccc(C)cc1Nc1n[n+](-c2ccccc2)c(-c2ccc(N(C)C)cc2)s1.[Cl-]	-6.88
COc1ccc(S(=O)(=O)c2c(O)c3ccc(C(=O)Nc4ccc(F)cc4)cc3[nH]c2=O)cc1	11.2
Cc1c2cnn(CC(=O)N3CCN(c4ncccn4)CC3)c(=O)c2c(C)n1Cc1ccc(F)cc1	6.47
COc1ccc(NC(=O)CSc2nc(O)c(Cc3ccccc3)c(=O)[nH]2)cc1	8.66
O=C(NC1=NCCS1)c1ccc(-c2ccc(Cl)cc2)o1	-1.77
O=C(C1=C[C@H](C2CC2)C[C@H](OCc2ccc(CO)cc2)O1)N1CCN(Cc2ccccc2)CC1	-8.6
COc1ccc(N/C(=C2\CCCC2=O)C2CCCCC2)cc1	15.8
CCN(CCCNC(=O)Cn1ncc2c([nH]c3ccc(C)cc32)c1=O)c1cccc(C)c1	12.8
CCN(CC)S(=O)(=O)c1ccc(Cl)c(C(=O)N2CCc3ccccc32)c1	-5.53
O=C(O)c1cc(N/N=C/c2cccc3ccccc23)ccc1Cl	5.2
O=C(CCC1N=C2c3ccccc3N=C(SCc3ccccc3Cl)N2C1=O)NCc1ccco1 (stereo not drawn)	-1.51
COc1cccc(CC(NC(C)=O)C(=O)NC2CCN(c3nc(C)cc(C)c3C#N)CC2)c1OC (stereo not drawn)	-5.03
CC(OC(=O)CNC(=O)C12CC3CC(CC(C3)C1)C2)C(=O)Nc1ccc(N2CCOCC2)cc1 (stereo not drawn)	-5.82
CC(C)N(C(=NCc1ccccc1)NC(=O)c1ccccc1)C(C)C	3.4
O=C(CC1CCCCC1)NCCOc1ccccc1	4.35
N#Cc1ccccc1OCC(=O)NCC(c1ccc(F)cc1)N1CCOCC1 (stereo not drawn)	2.06
CCSc1ncc(Cl)c(C(=O)Nc2ccc(S(N)(=O)=O)cc2)n1	7.59
O=C(N1CCN(c2ccccc2F)CC1)C1(S(=O)(=O)c2ccc(Cl)cc2)CC1	13.1
O=C(Cc1ccccc1)Nc1ccc(NC(=O)c2ccccc2)nc1	4.52

SMILES	hERG current change (%, negative = inhibition) at 1uM [%]
C/C(=N\Nc1cccc(C(F)(F)F)c1)c1ccc(O)cc1	14
CN1CCN(NC(=O)c2cccc(F)c2)CC1	6.98
Cc1ccc2nc(NC(=O)c3ccc(Cl)s3)sc2c1	5.88
Cc1cc(N/C=C\c2nnnn2-c2ccccc2)no1	14
CN1c2ccc([N+](=O)[O-])cc2CC2(C(=O)NC(=O)N(c3ccc(Br)cc3)C2=O)C1c1ccccc1 (stereo not drawn)	6.34
CCN1C(=O)/C(=C2\SC(N3CCCCC3)=NC2=O)c2ccccc21	6.75
O=C(NC1CCCC1)c1ccc(S(=O)(=O)N2CCCC2)cc1	16.2
CSc1ccc(/C=C/C(=O)OCC(=O)N2CCN(S(=O)(=O)c3ccc(C)cc3C)CC2)cc1	11.8
COc1ccc2[nH]c(C)c(CN3CCCCC3)c(=O)c2c1	10
COC(OC)c1ccnc(-c2ccc(OC(=O)c3cccs3)cc2)n1	-8.28
CC(C)(C)S(=O)(=O)/C(C#N)=N/Nc1ccc(Cl)cc1	23.3
Cc1cc(C)c(NC(=O)CS(=O)CC(=O)Nc2ccc(N3CCOCC3)cc2)c(C)c1 (stereo not drawn)	7.99
CC(=O)N1N=C(c2cccc([N+](=O)[O-])c2)OC1c1ccc(Cl)cc1Cl (stereo not drawn)	14.4
O=C(NC1CC1)c1ccc2c(c1)N(Cc1ccccc1)CCS2	6.09
NC(=O)NC(=O)Nc1ccccc1Cl	6.75
CN1CCN(C(=O)c2ccccc2N(Cc2ccccc2)S(=O)(=O)c2ccccc2)CC1	9.82
CC(C)Oc1ccc(Cc2n[nH]c(=S)n2Cc2ccccc2)cc1Cl	5.04
Cn1c(Cc2cccs2)nnc1SCC(=O)Nc1ccccc1	11.6
CC(C)(C)c1ccc(NC(=O)CCNC(=O)c2ccco2)cc1	14.1
CC(OC(=O)/C=C/c1ccco1)C(=O)Nc1cccc([N+](=O)[O-])c1 (stereo not drawn)	8.99
O=C(NCCCO)c1cc([N+](=O)[O-])cc2c1C=Cc1ccccc1O2	-12.9
